Data from the supplement of paper PMC5919970.
Structures can show the parent of a compound that is named as a salt. Over roughly 2,000 compounds, “fractional viability relative to vehicle” has its median near 0.91; the lowest 2% begin near 0.045. Some of the results follow.

Test system: TYKNU
Test: fractional viability relative to vehicle; TYKNU is a high-grade serous ovarian cancer line; higher = less growth inhibition
Details: 72 h
Outline: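 TYKNU control cells or lentiCRISPRv2 knockout derivatives were seeded at 500 cells per well into drug-stamped 384-well plates holding a ~2100-compound library at 2 or 10 μM, in duplicate. Cells were grown at 37 °C in 5% CO2 in RPMI 1640 with 10% FBS, and drug treatment lasted 72 h. Viability was read by Cell Titer Glo luminescence. Duplicate treatment wells were averaged and normalised to duplicate control wells from the same plate position.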

[1] = 2uM, genotype: DNM1L knockout (sgDNM1L #1)
[2] = 2uM, genotype: sgCTRLA1 (non-targeting control)
[3] = 10uM, genotype: DNM1L knockout (sgDNM1L #1)
[4] = 10uM, genotype: sgCTRLA1 (non-targeting control)

SMILES	fractional viability [1]	fractional viability [2]	fractional viability [3]	fractional viability [4]
COc1ccccc1OCCNCC(O)COc1cccc2[nH]c3ccccc3c12 (stereo not given) [Carvedilol]	0.852	1	0.555	0.739
CC1CCc2cc(F)cc3c(=O)c(C(=O)O)cn1c23 (stereo not given) [Flumequine]	1.01	1.09	0.991	1.17
CCCCOc1ccc(OCCCN2CCOCC2)cc1 [Pramoxine HCl]	1.07	1.09	0.971	1.06
C[C@@H](O)[C@H]1C(=O)N2C(C(=O)OCOC(=O)C(C)(C)C)=C(SC3CN(C4=NCCS4)C3)[C@H](C)[C@H]12 [Tebipenem Pivoxil]	0.892	1.07	0.837	1.02
CCN1CCCC1CNC(=O)c1cc(S(=O)(=O)CC)c(N)cc1OC (stereo not given) [Amisulpride]	1.03	1.03	0.958	1.02
Nc1nc(N)nc(-c2cc(Cl)ccc2Cl)n1 [Irsogladine]	0.933	1.02	1.16	1.02
CCCS(=O)(=O)Nc1ccc(F)c(C(=O)c2c[nH]c3ncc(Cl)cc23)c1F	1.12	1.16	0.552	0.824
CNC(=O)CN1CCC(Oc2cc3c(Nc4cccc(Cl)c4F)ncnc3cc2OC)CC1 [AZD8931 (Sapitinib)]	1.09	1.2	0.92	1.07
Nc1ncnc2c1c(-c1cccc(OCc3ccccc3)c1)cn2C1CC(CN2CCCC2)C1 (stereo not given)	0.983	0.895	0.109	0.0818
O=C(Nc1cccc(Cl)c1)Nc1ncc(CCNc2ncnc3ccsc23)s1 [SNS-314 Mesylate]	0.705	0.722	0.644	0.404
CCc1c(C(=O)NCCc2ccc(N3CCCCC3)cc2)[nH]c2ccc(Cl)cc12	0.749	1.01	0.923	0.991
CN1CCN(c2ccc(C(=O)Nc3n[nH]c4ccc(Cc5cc(F)cc(F)c5)cc34)c(NC3CCOCC3)c2)CC1 [Entrectinib (RXDX-101)]	0.597	0.771	0.0511	0.0303
COc1ccc(/C=C/C(=O)C2(C(=O)/C=C/c3ccc(OC)c(OC)c3)CCCCC2)cc1OC	0.183	0.264	0.0823	0.108
Cn1c(=O)c(F)c(Nc2ccc(I)cc2F)c2c(=O)n(C[C@@H](O)CO)cnc21	0.209	0.2	0.154	0.156
COc1ccc(-c2cc3c(C)nc(N)nc3n([C@H]3CC[C@H](OCCO)CC3)c2=O)cn1	0.141	0.165	0.0585	0.0406
CC(C)(C)C#Cc1cc(N(C(=O)[C@H]2CC[C@H](C)CC2)[C@H]2CC[C@H](O)CC2)c(C(=O)O)s1 [VX-222 (VCH-222, Lomibuvir)]	0.983	1.03	0.818	0.95
CC(C)N(CCC(=O)c1ccc2ccccc2c1)Cc1ccccc1	0.765	0.892	0.908	0.806
CCOC(=O)c1ccc(C#Cc2ccc3c(c2)C(C)(C)CCS3)nc1 [Tazarotene]	0.749	1.01	0.882	1.12
CCC(C)(C)c1ccc(CC(C)CN2C[C@@H](C)O[C@@H](C)C2)cc1 (stereo not given in full) [Amorolfine HCl]	0.921	0.962	0.707	0.927
CCCNS(=O)(=O)Nc1ncnc(OCCOc2ncc(Br)cn2)c1-c1ccc(Br)cc1 [Macitentan]	0.935	1.04	0.78	0.81
CCOc1nc2cccc(C(=O)OC(C)OC(=O)OC3CCCCC3)c2n1Cc1ccc(-c2ccccc2-c2nn[nH]n2)cc1 (stereo not given) [Candesartan Cilexetil]	0.922	1.22	0.76	1.1
CCN1CCC[C@H]1CNC(=O)c1cc(S(N)(=O)=O)ccc1OC [Levosulpiride]	1.02	1.01	0.922	1.03
Nc1ccc(S(N)(=O)=O)cc1 [Sulfanilamide]	0.895	1.17	0.899	1.05
CC(C)(Oc1ccc(C2CC2(Cl)Cl)cc1)C(=O)O (stereo not given) [Ciprofibrate]	0.986	1.13	0.83	1.18
N#CC(=C(/N)Sc1ccccc1N)/C(C#N)=C(\N)Sc1ccccc1N	1.13	1.02	0.859	1.01
Cc1[nH]c(/C=C2\C(=O)Nc3ccc(S(=O)(=O)Cc4c(Cl)cccc4Cl)cc32)c(C)c1C(=O)N1CCC[C@@H]1CN1CCCC1	0.317	0.279	0.0474	0.0167
NC(=O)[C@@H](CCC(F)(F)F)N(Cc1ccc(-c2ncon2)cc1F)S(=O)(=O)c1ccc(Cl)cc1	0.818	1.04	0.638	0.822
COc1ccc(CNCc2cccc3ccccc23)cc1	0.994	1.09	0.795	1.05
C=CCN1CCCC1CNC(=O)c1cc2nn[nH]c2cc1OC (stereo not given) [Alizapride HCl]	0.869	1.2	0.83	1.06
CC(C)c1onc(-c2c(Cl)cccc2Cl)c1COc1ccc(/C=C/c2cccc(C(=O)O)c2)c(Cl)c1	0.953	1.1	0.781	1.09
